Reference: a collection of fitness landscapes (doi:10.1126/science.1257360)
Some of the results follow.

B1: PhoQ; a variant is named by its letters at X, in order, P23837 (parent)
chain: MKKLLRLFFPLSLRVRFLLATAAVVLVLSLAYGMVALIGYSVSFDKTTFRLLRGESNLFYTLAKWENNKLHVELPENIDKQSPTMTLIYDENGQLLWAQRDVPWLMKMIQPDWLKSNGFHEIEADVNDTSLLLSGDHSIQQQLQEVREDDDDAEMTHSVAVNVYPATSRMPKLTIVVVDTIPVELKSSYMVWSWFIYVLSANLLLVIPLLWVAAWWSLRPIEALAKEVRELEEHNRELLNPATTRELTSLVRNLNRLLKSERERYDKYRTTLTDLTHSLKTPLXXLQXXLRSLRSEKMSVSDAEPVMLEQISRISQQIGYYLHRASMRGGTLLSRELHPVAPLLDNLTSALNKVYQRKGVNISLDISPEISFVGEQNDFVEVMGNVLDNACKYCLEFVEISARQTDEHLYIVVEDDGPGIPLSKREVIFDRGQRVDTLRPGQGVGLAVAREITEQYEGKIVAGESMLGGARMEVIFGRQHSAPKDE

Variants of: B1
Experiment: enrichment ratio after two sorts for PhoP signalling (ratio (wild type AVST 3.29)); higher = more functional
Conditions: with PhoP (E. coli)

Variant	enrichment ratio
DRLG	≤ 0.25
HRYA	≤ 0.25
INLW	≤ 0.25
EINA	≤ 0.25
ICNF	≤ 0.25
WNVI	≤ 0.25
LQWD	≤ 0.25
QTPV	≤ 0.25
TAYR	≤ 0.25
WKFR	≤ 0.25
RDWT	≤ 0.25
IIVD	≤ 0.25
ILFY	≤ 0.25
TAKT	≤ 0.25
HFFV	≤ 0.25
YKEQ	≤ 0.25
FNTP	≤ 0.25
QPRS	≤ 0.25
WCLD	≤ 0.25
WMSG	≤ 0.25
FELK	≤ 0.25
QRQY	≤ 0.25
HFDS	≤ 0.25
KSRC	≤ 0.25
TCDW	≤ 0.25

Variant	enrichment ratio
MPRD	≤ 0.25
SSLR	0.256
RHQK	≤ 0.25
PMAT	≤ 0.25
LEFI	2.43
EFNS	≤ 0.25
QMHM	28.3
SCKA	≤ 0.25
PMLC	≤ 0.25
IINC	≤ 0.25
PGPT	≤ 0.25
FPCA	≤ 0.25
DDPM	≤ 0.25
TRYF	≤ 0.25
MKFC	≤ 0.25
SNHY	≤ 0.25
DSNR	≤ 0.25
IKFG	≤ 0.25
RKNA	≤ 0.25
NSPV	≤ 0.25
GQRC	≤ 0.25
MERW	≤ 0.25
RPHQ	≤ 0.25
NFAR	≤ 0.25
MPVA	≤ 0.25

Variant	enrichment ratio
RIVY	≤ 0.25
EDAQ	≤ 0.25
RWPM	≤ 0.25
LVCV	≤ 0.25
ASKM	≤ 0.25
FTCI	1.01
KEYH	≤ 0.25
SFHR	≤ 0.25
YPCS	≤ 0.25
LQII	≤ 0.25
PRTY	≤ 0.25
FINW	≤ 0.25
YWRP	≤ 0.25
GQHM	≤ 0.25
RFWM	≤ 0.25
DLPD	≤ 0.25
ADVI	8.19
GDKN	≤ 0.25
ERPP	≤ 0.25
HPGV	≤ 0.25
KYRC	≤ 0.25
LVRC	≤ 0.25
YALS	5.59
DYDR	≤ 0.25
WIFN	≤ 0.25

Variant	enrichment ratio
MRKH	≤ 0.25
DYDP	≤ 0.25
QPRE	≤ 0.25
GNEL	≤ 0.25
AQWY	≤ 0.25
DCAA	≤ 0.25
SIFI	≤ 0.25
GKGY	≤ 0.25
KIYG	≤ 0.25
CVSF	≤ 0.25
GRGE	≤ 0.25
MDAS	0.445
GNNL	2.95
GINA	≤ 0.25
EVSF	2.03
CDDF	≤ 0.25
HDRE	≤ 0.25
WPGR	≤ 0.25
ESAQ	≤ 0.25
NWKC	≤ 0.25
VTME	≤ 0.25
QGNK	≤ 0.25
GRTC	≤ 0.25
